# Among all 340,000 compounds or so, about 6,900 (2%) were called active. Cut-off read from the data, not from the text of the source: active = inhibition above about 30%; inactive = below that, where a call was filed. The entries are a selection whose mix differs from that of the whole data set. Entries without a call were filed so in the source. A structure can be active in one record and inactive in another.
# Target: D(2) dopamine receptor (Homo sapiens) (UniProt P14416)
# Test: HTS Assay for Allosteric Antagonists of the Human D2 Dopamine Receptor: Primary Screen for Antagonists; note: 0% is about no effect
# Details: HEK293 TREx D2 cells, calcium flux, dopamine EC80; at 10 µM; stronger effect = higher value
# Summary of the method: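 Tetracycline-induced HEK293 T-REx cells expressing D2 force-coupled to calcium signalling were dye-loaded, exposed to compound for 180 s, then challenged with an EC80 of dopamine; calcium flux was followed kinetically for a further 180 s.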
# Chain of UniProt P14416 (P14416 whole entry, looked up): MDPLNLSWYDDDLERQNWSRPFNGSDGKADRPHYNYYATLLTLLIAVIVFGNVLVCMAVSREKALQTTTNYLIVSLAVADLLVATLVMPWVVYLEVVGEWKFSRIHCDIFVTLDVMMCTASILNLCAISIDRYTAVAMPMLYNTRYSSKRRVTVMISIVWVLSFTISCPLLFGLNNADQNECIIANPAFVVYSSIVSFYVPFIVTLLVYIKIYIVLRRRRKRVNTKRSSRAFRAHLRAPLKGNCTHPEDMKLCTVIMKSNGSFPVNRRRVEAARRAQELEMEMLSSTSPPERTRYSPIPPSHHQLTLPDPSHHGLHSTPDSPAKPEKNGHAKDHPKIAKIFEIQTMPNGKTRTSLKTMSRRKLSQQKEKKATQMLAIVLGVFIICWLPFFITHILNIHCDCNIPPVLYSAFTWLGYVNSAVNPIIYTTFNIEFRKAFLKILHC
row,Structure (SMILES),inhibition
1,Cc1ccc(CNC(=O)C2CCN(c3nc4ccccc4n(C)c3=O)CC2)cc1,23.6%
2,CCOC(=O)CSc1nc2c(sc3ccccc32)c(=O)n1CCc1ccccc1,-7.7%
3,O=C(Nc1ccccc1C(F)(F)F)c1cc2ccccc2o1,active: 47.4%
4,COc1ccc(-c2ccc3c(N)c(C(=O)NCc4ccc(Cl)cc4)sc3n2)cc1,-4.39%
5,COC(=O)c1c(SC)nc2ccccc2c1OCc1ccccc1C,-5.76%
6,O=[N+]([O-])c1ccc(N/N=C/c2ccccc2O)cc1,active: 35.8%
7,CCc1ccc(NC(=O)C2CCN(S(=O)(=O)c3ccc4[nH]c5c(c4c3)CCCCC5)CC2)cc1,1.79%
8,O=C(CCn1c(=O)c2ccccc2n(Cc2ccc(F)cc2Cl)c1=O)NCc1ccc2c(c1)OCO2,-7.61%
9,CCn1cc(C(=O)N2CCN(c3ccccc3F)CC2)c(=O)c2cc(S(=O)(=O)N(C)C3CCCCC3)ccc21,-11.5%
10,O=C(CCN1CCN(c2ccccc2)CC1)N/N=C/c1ccc(O)c(O)c1O,active: 78.1%
11,CCOC(=O)c1c(C)oc2nc(C)nc(NCc3ccc(Cl)cc3)c12,-1.76%
12,CC(=O)N1CCc2cc(Br)cc(S(=O)(=O)N3CCC(C(=O)N(C)c4cc(C)ccc4C)CC3)c21,0.579%
13,COc1ccc(-c2cc3ccc(O)c(CN4CCOCC4)c3oc2=O)cc1,18.5%
14,COc1cc(NC(=O)c2ccccc2)ccc1NC(=O)c1cc2ccccc2o1,-25.1%
15,Cc1cccc(NC(=O)c2nc(S(C)(=O)=O)ncc2Cl)c1,-9.25%
16,Cc1cccc(NC(=O)CSc2nc(-c3ccco3)nc3cc(=O)[nH]n23)c1,-11.3%
17,CC(C)CN1CCc2nc(N3CCN(C)CC3)ncc2C1,21.8%
18,Cn1c(=O)cc(SCC(=O)N2CCN(c3ccc(F)cc3)CC2)c2ccc(Cl)cc21,-7.68%
19,Cc1ccc(Nc2c3c(nc4nncn24)CCC3)cc1C,20.6%
20,O=C(CN1C(=O)COc2ccc(S(=O)(=O)N3CCOCC3)cc21)NCc1ccc(F)cc1,11.3%
21,CCOc1cc(S(=O)(=O)n2ccnc2C(C)C)ccc1Cl,15%
22,Cn1c(-c2ccc(CN3CCCCC3)o2)nc2ccccc21,active: 33.8%
23,O=C(CSc1nc2c(oc3ccccc32)c(=O)n1-c1ccccc1F)Nc1ccccc1,18.8%
24,Cc1ccc(CN2CCSc3ccc(C(=O)N4CCN(c5cc(C)ccc5C)CC4)cc32)cc1,-1.46%
25,CCOC(=O)c1c(S(=O)(=O)N2CCCC(C(=O)N3CCN(c4cccc(C)c4C)CC3)C2)c(C)n(C)c1C (stereo not drawn),16.4%

row,Structure (SMILES),inhibition
1,O=C(CSc1nnnn1Cc1ccccc1)NCCc1ccccc1,active: 31.9%
2,COc1ccccc1N1CCN(C(=O)c2cc3c(=O)n(Cc4ccco4)ccc3nc2C)CC1,-18.2%
3,N#Cc1nc(-c2ccc(COc3ccc(Cl)cc3)o2)oc1N1CCN(c2ccccc2)CC1,4.34%
4,CCOc1ccc(NC(=O)CCn2cnc3onc(-c4ccc(F)cc4)c3c2=O)cc1,-3%
5,Cc1ccccc1NC(=O)CCn1cnc2onc(-c3ccc(F)cc3)c2c1=O,-0.478%
6,CCC(C)(C)C1CCc2c(sc(NC(=O)C3c4ccccc4Oc4ccccc43)c2C(N)=O)C1 (stereo not drawn),19.3%
7,O=S(=O)(c1ccccc1)c1nc(-c2cccs2)oc1SCc1ccccc1F,6.48%
8,CCCCC(CC)CNC(=O)C1CCN(S(=O)(=O)c2cccc3nsnc23)CC1 (stereo not drawn),-10.5%
9,Cc1ccccc1OCC(=O)OCc1cc(=O)n2ccsc2n1,5.64%
10,Cc1ccc2cc3cc(C(=O)Nc4ccc(F)cc4Cl)oc3nc2c1,-23.7%
11,CCN(CC)S(=O)(=O)c1ccc2c(c1)N(CC(=O)N1CCN(c3cccc(C(F)(F)F)c3)CC1)C(=O)CO2,-16.7%
12,Cc1c(Cl)cccc1-n1ncc(C(=O)Nc2ccc3c(c2)OCCO3)c1C1CCN(C(=O)OC(C)(C)C)CC1,5.93%
13,CCOc1ccc(-c2nc(SC(C(C)=O)C(=O)N(C)C)c3c(=O)n(C)c(=O)n(C)c3n2)cc1 (stereo not drawn),-9.42%
14,CCc1ccc(NC(=O)c2ccc3c(c2)nnn3CC)cc1,1.35%
15,COc1ccc(-c2nn(C)c3sc(C(=O)Nc4cccc(F)c4)cc23)cc1OC,-23.2%
16,Cc1ccc(NC(=O)Cn2c(-c3ccc4c(c3)OCO4)cn(-c3ccccc3)c2=O)cc1C,0.314%
17,Cc1ccc(C2Nc3ccccc3-n3c(-c4ccccc4)c4c(=O)n(C)c(=O)n(C)c4c32)o1 (stereo not drawn),-8.09%
18,CCC1CN(C(=O)N2CCC(C(=O)NCc3ccc(OC)cc3OC)CC2)c2cc(C)ccc2O1 (stereo not drawn),-2.2%
19,Cc1cc(C)cc(NC(=O)c2cc(S(=O)(=O)N3CCCCCC3)cn2C)c1,21.2%
20,COCCn1c(SCC(=O)c2cc(C)ccc2C)nc2cc(C(=O)NC3CCCC3)ccc2c1=O,6.17%
21,Nc1ccn([C@H]2CC[C@@H](CO)O2)c(=O)n1,active: 37.3%
22,Cc1nn(CC(=O)NC2CC2)c(=O)c2cc3ccccc3n12,5.38%
23,Cn1c(SCc2ccc(F)cc2)nc2ccc(C(=O)NCc3ccc(F)cc3)cc21,10.1%
24,CCN(CC)CCN(C(=O)c1ccco1)c1nc2ccc(Cl)cc2s1,-10.4%
25,Cc1ccc(COC(=O)c2cccc(S(=O)(=O)N3CCCCCC3)c2)cc1,active: 42.9%

row,Structure (SMILES),inhibition
1,O=C(NCCOc1ccccc1F)c1cccc(S(=O)(=O)N2CCN(c3ccccc3)CC2)c1,active: 35.4%
2,COc1ccc(Cl)cc1NC(=O)Cn1ccn(Cc2ccc(C)cc2)c(=O)c1=O,3.58%
3,O=C(c1cc2c(=O)oc3ccccc3c2s1)N1CCN(c2cccc(Cl)c2)CC1,-14.6%
4,COc1ccccc1OCCn1cc(C(=O)c2cccs2)c2ccccc21,-14%
5,O=C(Nc1ccccc1)c1cccc2c(=O)c3c([nH]c12)CCCC3,7.8%
6,CCOC(=O)N1CCN(C(=O)CN(c2cccc(Cl)c2C)S(=O)(=O)c2ccc(C)cc2)CC1,13%
7,COc1ccccc1-c1nc(-c2ccc(Br)o2)no1,1.6%
8,Cc1cccc(-n2c(SCC(N)=O)nc3c(oc4ccccc43)c2=O)c1,-0.638%
9,CCOc1ccccc1NC(=O)C1CCN(S(=O)(=O)c2c(C)noc2/C=C/c2ccc(C)cc2)CC1,1.77%
10,CN1CCN(CC(O)COc2ccccc2)CC1 (stereo not drawn),active: 32.5%
11,COC(=O)c1ccc(Nc2ncnc3c2nc2n3CCCC2)cc1,17.8%
12,CCOc1ccc(C(=O)NCCn2cc(SCC(=O)NCCc3ccc(OC)c(OC)c3)c3ccccc32)cc1,7.99%
13,Cc1ccccc1-c1nc(CNC(=O)Nc2ccccc2)c(C)o1,-11.7%
14,Cc1ccccc1OCc1ccc(-c2nc(C#N)c(NCCCN(C)C)o2)o1,-4.15%
15,Cc1ccc(C(=O)Nc2ccc(Cl)c(-c3nc4ncccc4o3)c2)c(C)c1,8.62%
16,CC1CCCCN1Cc1c(C#N)c2ccccc2n1C (stereo not drawn),active: 40.2%
17,CCOC(=O)C1CCN(C(c2ccccc2OC)c2c(O)cc(C)n(CCOC)c2=O)CC1 (stereo not drawn),4.97%
18,COc1cccc(-c2nc(-c3ccc(-c4ccccc4)nc3OC)no2)c1,-0.295%
19,O=C(Nc1ccc(F)cc1)[C@H](Cc1ccccc1)N1Cc2ccccc2C1=O,-0.738%
20,CC(C)CCOc1ccc(C(=O)Nc2sc3c(c2C#N)CCCCC3)cc1,3.32%
21,Cn1nnnc1SCCCNCc1cccc(OCc2ccc(Cl)cc2)c1,-25.8%
22,Cc1c(Cl)ccc2sc(N3CCN(C(=O)c4ccco4)CC3)nc12,6.77%
23,Cc1ccc(CCNC(=O)CN(c2ccc(C)cc2)S(=O)(=O)c2c(C)noc2C)cc1,-9.19%
24,COc1ccccc1CNc1ccc(-c2nc(C(C)C)no2)cc1[N+](=O)[O-],15.1%
25,COc1ccc(NC(=O)Cn2cnc3sc(C)c(S(=O)(=O)N4CCN(C)CC4)c3c2=O)cc1OC,25%

row,Structure (SMILES),inhibition
1,Cc1ccc(C)c(NC(=O)Cn2cc(C(=O)c3ccncc3)c(=O)c3cc(F)ccc32)c1,-14.9%
2,CCOc1ccc(CNC(=O)c2cc3oc4ccccc4c3n2C)cc1,1.67%
3,Cc1cc(C)c2c(CC(=O)N(Cc3ccc(N(C)C)cc3)Cc3ccco3)coc2c1,9.19%
4,O=C(CSc1nc2c(c(=O)[nH]1)CCC2)Nc1ccccc1F,10.1%
5,CN(C)c1ccc(CNc2nc(-c3ccco3)nn2S(=O)(=O)c2ccc3ccccc3c2)cc1,-15.3%
6,CN(Cc1nc(-c2cccc(Cl)c2)no1)C1CCOCC1,active: 46.9%
7,CCCCOc1ccc(-c2nonc2NC(=O)c2ccco2)cc1,11.7%
8,COc1ccc(NC(=O)CCNS(=O)(=O)c2cccc3nonc23)cc1,12.8%
9,CCCC(=O)N1c2ncnn2C2(CCCCC2)[C@@H]2CCCC[C@@H]21,6.2%
10,Cc1ccc(OCC(=O)NCC2(N3CCN(C)CC3)CCCCC2)cc1C,-27%
11,Cc1ccc(Cn2cccc2C2=NC(C)(C)CO2)cc1,13.4%
12,COc1ccccc1OC(C)C(=O)NCC1(N2CCOCC2)CCCCC1 (stereo not drawn),-24.3%
13,COCCCN(C(=O)Cc1coc2cc(C)c(C)cc12)c1c(N)n(Cc2ccccc2)c(=O)[nH]c1=O,active: 48.2%
14,CCS(=O)(=O)N1N=C(c2ccc(C)cc2)CC1c1cc2ccc(OC)cc2nc1Cl (stereo not drawn),-4.59%
15,CC1CCN(S(=O)(=O)c2ccc3c(c2)N(CC(=O)NC(C)C)C(=O)CS3)CC1,0.609%
16,Cc1ccc(OC(=O)c2cc(-c3ccc4c(c3)OCCO4)on2)c(C)c1,-0.412%
17,CCc1nn(CCCC(=O)NCc2ccccc2Br)c(=O)c2cc3occc3n12,0.483%
18,CCOC(=O)c1cccc(NC(=O)c2cc(CN3CCCC3)on2)c1,2.4%
19,COc1ccc(OC)c(NC(=O)CSc2c3c(nc4ccccc24)CCCC3)c1,-5.97%
20,Cc1ccc(S(=O)(=O)NCCc2nnc3ccc(SCc4ccccc4C)nn23)cc1,-12.4%
21,Cn1c(=O)c(=O)n(C)c2cc(S(=O)(=O)NCCN3CCN(c4ccccc4F)CC3)ccc21,active: 42.8%
22,COc1ccc(N2CCN(C(=O)Cn3cnc4nc5c(cc4c3=O)CCCC5)CC2)cc1,-22.7%
23,S=C(Nc1ccc(Br)cc1)NC1CCN(Cc2ccccc2)CC1,active: 109%
